The subject of the assay is mPer2Luc MEF. The assay can be described thus: PER2::LUC luminescence relative to vehicle control (fold of vehicle); higher = higher PER2::LUC reporter signal. The conditions noted are these: 10 µM. An outline of the steps:
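The value is PER2::LUC luminescence expressed as fold of vehicle control. Mouse embryonic fibroblasts carrying the mPer2Luc reporter were seeded at ~3000 cells per well in 384-well plates and grown in DMEM with 10% FBS at 37 °C and 5% CO2. Compounds from commercial libraries were added at 10 μM 48 h after seeding, and luminescence was read with the ONE-Glo luciferase assay system 24 h and 30 h after treatment, followed by an alamarBlue viability assay.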

Experimental findings from the supplement of paper PMC9334596 are described below.

Values joined by “and” are separate entries in the source; they are usually repeats but may differ in a detail not shown here. Equal entries are not always repeated. Whole data set: some 5,300 compounds, median “PER2::LUC luminescence relative to vehicle control” near 0.96, cut for the highest 2% near 1.3. This is one part of the list.

Consider `CN1CCN(c2ccc3ccccc3n2)CC1`, for which the “PER2::LUC luminescence” value (time after treatment 24 h) worked out at 1.14 and the “PER2::LUC luminescence” value (time after treatment 30 h) was determined as 1.23.
With `Clc1ccc(N2CCN(Cc3c[nH]c4ncccc34)CC2)cc1`, the “PER2::LUC luminescence” value (time after treatment 24 h) is 0.956 and 0.908; the “PER2::LUC luminescence” value (time after treatment 30 h) was 0.954 and 0.925.
On to `CCn1cnc2c(Nc3cccc(Cl)c3)nc(N[C@@H]3CCCC[C@@H]3N)nc21`, for which the “PER2::LUC luminescence” value reads like this: (time after treatment 24 h) 0.587; (time after treatment 30 h) 0.595.
Regarding `c1ccc2c(c1)[nH]c1cnccc12`, the “PER2::LUC luminescence” value is 1.06 and 0.932 (time after treatment 24 h); 1.06 and 0.931 (time after treatment 30 h).
As to `O=C(CCCN1CCC2(CC1)C(=O)N(Cc1cccc(F)c1)CN2c1ccccc1)c1ccc(F)cc1`, the “PER2::LUC luminescence” value was 0.93 (time after treatment 24 h) and 0.783 (time after treatment 30 h).
For the compound `CCN(CC)C(=O)c1ccc(C2=CC3(CCNCC3)Oc3cccc(O)c32)cc1`, the “PER2::LUC luminescence” value is, setting by setting: (time after treatment 24 h) 0.963 and 0.998; (time after treatment 30 h) 1.04 and 0.959.
With `O=S1(=O)N(CCN2CC=C(c3c[nH]c4cc(F)ccc34)CC2)c2cccc3c2N1CCC3`, the “PER2::LUC luminescence” value is, setting by setting: (time after treatment 24 h) 1.05; (time after treatment 30 h) 1.06.
The like results for `N#CC(C#N)=Cc1ccc([N+](=O)[O-])c(O)c1` were, in that order, 1.17 and 0.925.
The like results for `O=[N+]([O-])OCC(CO[N+](=O)[O-])O[N+](=O)[O-]` were, in that order, 0.829 and 0.825.
With `CN1CC[C@]2(c3cccc(O)c3)Cc3nc4ccccc4cc3C[C@H]2C1`, the “PER2::LUC luminescence” value (time after treatment 24 h) is 1.02 and the “PER2::LUC luminescence” value (time after treatment 30 h) is 1.01.
For `CC(NC(=O)C(N)Cc1ccc(O)cc1)C(=O)NC(Cc1ccccc1)C(=O)NC(Cc1ccccc1)C(N)=O` (stereo not given), in that order: 1.06 and 1.03.
With `COc1cc2cc(c1Cl)N(C)C(=O)C[C@H](OC(=O)[C@H](C)N(C)C(=O)CCS)[C@]1(C)O[C@H]1[C@H](C)[C@@H]1C[C@@](O)(NC(=O)O1)[C@H](OC)/C=C/C=C(\C)C2`, the “PER2::LUC luminescence” value runs as follows: (time after treatment 24 h) 0.314; (time after treatment 30 h) 0.438.
Regarding `NCC(CP(=O)(O)O)c1ccc(Cl)cc1` (stereo not given), the “PER2::LUC luminescence” value (time after treatment 24 h) is 1 and the “PER2::LUC luminescence” value (time after treatment 30 h) came out at 0.976.
For `c1ccc(C2CC2)c(OCC2=NCCN2)c1`, in that order: 1.01 and 0.882.
For `CN1[C@@H]2CC[C@H]1C[C@@H](OC(c1ccccc1)c1ccccc1N)C2` (stereo not given in full), in that order: 0.825 and 1.
The like results for `CNC(C)(C)Cc1ccccc1` were, in that order, 1.05 and 0.849.
Consider `CCOP(=S)(OCC)Oc1cc(C)nc(C(C)C)n1`, for which the “PER2::LUC luminescence” value by setting is: (time after treatment 24 h) 0.901 and 0.93; (time after treatment 30 h) 1.01 and 0.921.
With `OC(O)C(Cl)(Cl)Cl`, the “PER2::LUC luminescence” value is 0.989 (time after treatment 24 h) and 1.14 (time after treatment 30 h).
For `C[C@]12CCC(=O)C(O)=C1CC[C@@H]1[C@@H]2CC[C@]2(C)C(=O)CC[C@@H]12`, in that order: 0.881 and 1.12.
For `NNC(=O)c1nn(Cc2ccc(Cl)cc2Cl)c2ccccc12`, in that order: 0.998 and 1.02.
`c1ccc(CCCN2CCN(CCOC(c3ccccc3)c3ccccc3)CC2)cc1`: the “PER2::LUC luminescence” value is, setting by setting: (time after treatment 24 h) 0.768 and 0.672 and 0.629; (time after treatment 30 h) 0.772 and 0.631 and 0.562.
As for `CC(C)C[C@H]1C(=O)N2CCC[C@H]2[C@]2(O)O[C@](NC(=O)[C@@H]3C=C4c5cccc6[nH]c(Br)c(c56)C[C@H]4N(C)C3)(C(C)C)C(=O)N12`, the “PER2::LUC luminescence” value is 0.988 and 0.778 (time after treatment 24 h); 0.976 and 0.802 (time after treatment 30 h).
Turning to `O=C(OC1CCN(CCCl)CC1)C(c1ccccc1)c1ccccc1`, the “PER2::LUC luminescence” value stood at 0.819 (time after treatment 24 h) and 0.848 (time after treatment 30 h).
As for `CCCC[C@@H](C)[C@@H](OC(=O)C[C@@H](CC(=O)O)C(=O)O)[C@H](C[C@@H](C)CCCCCC[C@@H](O)C[C@H](O)[C@H](C)N)OC(=O)C[C@@H](CC(=O)O)C(=O)O`, the “PER2::LUC luminescence” value is, setting by setting: (time after treatment 24 h) 1.01; (time after treatment 30 h) 0.952.
Regarding `C=CCN1CC[C@]23c4c5ccc(O)c4O[C@H]2/C(=N/N=C2\CC[C@@]4(O)[C@H]6Cc7ccc(O)c8c7[C@@]4(CCN6CC=C)[C@H]2O8)CC[C@@]3(O)[C@H]1C5`, the “PER2::LUC luminescence” value reads like this: (time after treatment 24 h) 1; (time after treatment 30 h) 1.03.
As for `COc1cc(C(O)CN)ccc1O` (racemic), the “PER2::LUC luminescence” value is, setting by setting: (time after treatment 24 h) 1.02; (time after treatment 30 h) 0.892.
Take `C[C@]12CCC(=O)C=C1CC[C@@H]1[C@@H]2CC[C@@]2(C)[C@H]1CC[C@]2(C)O`: the “PER2::LUC luminescence” value (time after treatment 24 h) is 0.954 and 0.937; the “PER2::LUC luminescence” value (time after treatment 30 h) is 1.09 and 0.907.
Turning to `CN1[C@@H]2CC[C@H]1C[C@@H](OC(=O)C(CO)c1ccccc1)C2` (stereo not given in full), the “PER2::LUC luminescence” value by setting is: (time after treatment 24 h) 0.917 and 0.97 and 0.833; (time after treatment 30 h) 1.03 and 0.929 and 0.942.
Regarding `CCOc1ccccc1-n1c(C(C)N2CCN(C(=O)COc3ccc(Cl)cc3)CC2)nc2ccccc2c1=O` (stereo not given), the “PER2::LUC luminescence” value reads like this: (time after treatment 24 h) 1.17; (time after treatment 30 h) 1.09.
For `C[C@@H]1CC[C@H]2[C@H](C)[C@H]3CC[C@@]4(O)[C@@H]5CC(=O)[C@H]6CC(=O)CC[C@]6(C)[C@H]5C[C@H]4[C@@H]3CN2C1`, in that order: 0.961 and 1.
The like results for `CC(C)NCC(O)c1ccc(N)c(C#N)c1` (stereo not given) were, in that order, 1.07 and 0.977.
The like results for `C[C@H]1CC[C@@H]2N(C1)C[C@H]1[C@@H]3C[C@H]4[C@@H](CC(=O)[C@H]5C[C@@H](O)CC[C@@]54C)[C@@H]3CC[C@H]1[C@]2(C)O` were, in that order, 0.88 and 0.989.
For the compound `CNCC(O)c1ccc(O)cc1` (stereo not given), the “PER2::LUC luminescence” value (time after treatment 24 h) is 1 and 1.06 and 0.997; the “PER2::LUC luminescence” value (time after treatment 30 h) is 1.08 and 1.01 and 0.984.
`CCC1=C[C@H]2CN3CCc4c([nH]c5ccccc45)[C@](C(=O)OC)(C2)[C@H]13`: the “PER2::LUC luminescence” value worked out at 1.01 (time after treatment 24 h) and 0.824 (time after treatment 30 h).
For `CN[C@@H]1[C@@H](O)[C@@H](O[C@@H]2[C@@H](O)[C@H](O[C@H]3O[C@H]([C@@H](C)O)[C@@H](O)[C@H](O)[C@H]3N)[C@@H](N)C[C@H]2N)OC[C@]1(C)O`, in that order: 0.978 and 0.919.
For `O=C(Cc1ccc(Cl)c(Cl)c1)N1CCCCC1CN1CCCC1` (stereo not given), in that order: 0.908 and 0.925.
On to `C#CCOC(=O)C1=CCCN(C)C1`, for which the “PER2::LUC luminescence” value is 0.873 and 0.859 (time after treatment 24 h); 1.08 and 1 (time after treatment 30 h).
Consider `Cc1sc2c(c1C)C(c1ccc(Cl)cc1)=N[C@@H](CC(=O)Nc1ccc(O)cc1)c1nnc(C)n1-2`, for which the “PER2::LUC luminescence” value (time after treatment 24 h) came out at 0.095 and the “PER2::LUC luminescence” value (time after treatment 30 h) came out at 0.129.
For the compound `CCc1c(C(=O)C(N)=O)c2c(OCC(=O)O)cccc2n1Cc1ccccc1`, the “PER2::LUC luminescence” value runs as follows: (time after treatment 24 h) 0.996 and 1.2; (time after treatment 30 h) 0.96 and 1.11.
Consider `CC(=O)[C@H]1CC[C@H]2[C@@H]3CC[C@@H]4CC(=O)CC[C@]4(C)[C@H]3CC[C@]12C`, for which the “PER2::LUC luminescence” value is, setting by setting: (time after treatment 24 h) 0.782; (time after treatment 30 h) 0.786.
